Out of some 39,000 compounds screened, about 220 (0.56%) showed activity. This is one part of the list.
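Also: static incubation at 37 °C against the wild-type strain, values averaged over two biological replicates.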

The test deals with Escherichia coli K-12 BW25113. As to the kind of experiment: relative growth (OD600 normalised to plate interquartile mean) (fraction); higher = less growth inhibition, active = 0.2 or less. Particulars: 50 µM; LB; incubation time: overnight (16-24 h).
As to `C[C@@H]1CCCCO[C@H](CN(C)S(=O)(=O)c2cn(C)cn2)[C@@H](C)CN([C@@H](C)CO)C(=O)c2cc(NS(=O)(=O)c3cn(C)cn3)ccc2O1`, the relative growth was inactive: 1.01. For `COc1ccc(NC(=O)Nc2ccc3c(c2)CC(=O)N([C@@H](C)CO)C[C@@H](C)[C@H](CN(C)S(=O)(=O)c2c(C)noc2C)O3)cc1` the value was inactive: 0.922; for `C[C@H](CO)N1C[C@H](C)[C@@H](CN(C)CC2CC2)OCCCC[C@H](C)Oc2ccc(NC(=O)Nc3cccc4ccccc34)cc2C1=O`, inactive: 0.991; for `C/C=C/c1ccc2c(c1)O[C@H](CN(C)S(=O)(=O)c1ccc(C)cc1)[C@H](C)CN([C@H](C)CO)S2(=O)=O`, inactive: 1.01.

As for `CSc1sc(C)cc1/C=N/O`, the relative growth was inactive: 1.01. To `C[C@H]1CN([C@@H](C)CO)C(=O)c2ccccc2-c2ccccc2CO[C@H]1CN(C)C(=O)Nc1ccccc1C(F)(F)F` belongs inactive: 0.933; to `COC(=O)c1c(C(=O)OC)c2n(c(=O)c1-c1ccccc1)[C@@H]1c3ccccc3O[C@@](COCc3ccc(OC)cc3)([C@@H]1COC(=O)c1ccccc1)N2C`, inactive: 1.08. For `CCN1CC2(CCN(C(=O)[C@H]3CCC(=O)N3)CC2)COc2ccccc2S1(=O)=O` the value was inactive: 0.999; for `Cc1noc(C)c1NC(=O)Nc1ccc2c(c1)C(=O)N([C@@H](C)CO)C[C@H](C)[C@@H](CN(C)S(=O)(=O)c1ccc(Cl)cc1)OCCCC[C@H](C)O2`, inactive: 0.991. For `COCC(=O)Nc1ccc2c(c1)C(=O)N(C)C[C@H](OC)[C@@H](C)CN(Cc1cccc(F)c1)[C@@H](C)CO2` the value was inactive: 0.976. In the case of `COc1ccc(C#Cc2ccc3c(c2)[C@]2(C(=O)N3)[C@H](c3ccc(OCCO)cc3)N3[C@H](c4ccccc4)[C@H](c4ccccc4)OC(=O)[C@H]3[C@@H]2C(=O)N2CCN(c3ncccn3)CC2)cc1`, the relative growth was inactive: 1.08. For `C[C@H]1CCCCO[C@@H](CN(C)C(=O)C2CCCCC2)[C@@H](C)CN([C@@H](C)CO)C(=O)c2cc(NC(=O)Nc3ccc(F)cc3)ccc2O1`, the relative growth is inactive: 0.99.

For the compound `CO[C@H]1CN(C)C(=O)c2ccc(NC(=O)C3CC3)cc2OC[C@@H](C)N(C(=O)CN2CCOCC2)C[C@@H]1C`, the relative growth was inactive: 1.

Turning to `CO[C@@H](CN(C)S(=O)(=O)c1cccc(Cl)c1)[C@H](C)CN([C@@H](C)CO)S(=O)(=O)c1cccc(Cl)c1`, the relative growth is inactive: 1.02. Take `CC(C)NC(=O)N[C@@H]1CC[C@H](CCN)O[C@H]1CO`: the relative growth is inactive: 0.979. To `Cc1noc(C)c1NC(=O)Nc1ccc2c(c1)C(=O)N([C@@H](C)CO)C[C@H](C)[C@@H](CN(C)C(=O)Cc1ccccc1)OCCCC[C@@H](C)O2` belongs inactive: 0.996.

`Cc1ccc(S(=O)(=O)N(C)C[C@@H]2Oc3cc(C#Cc4ccccc4)ccc3S(=O)(=O)N([C@H](C)CO)C[C@@H]2C)cc1`: the relative growth is inactive: 1. In the case of `C[C@@H]1CCCCO[C@@H](CN(C)Cc2ccc(C(F)(F)F)cc2)[C@H](C)CN([C@H](C)CO)C(=O)c2cc(NC(=O)Nc3ccc(F)cc3)ccc2O1`, the relative growth was inactive: 1.03. With `COc1cc(-c2cc(=O)c3c(s2)N(Cc2ccco2)[C@@H](c2ccc(O)c(OC)c2)CC3=O)ccc1O`, the relative growth was inactive: 1.01.

Turning to `Cc1noc(C)c1NC(=O)N(C)C[C@H]1Oc2c(NC(=O)C3CCOCC3)cccc2C(=O)N([C@@H](C)CO)C[C@@H]1C`, the relative growth was inactive: 0.966.

Turning to `Cc1noc(C)c1NC(=O)Nc1ccc2c(c1)C(=O)N([C@H](C)CO)C[C@@H](C)[C@@H](CN(C)Cc1ccc3c(c1)OCO3)OCCCC[C@@H](C)O2`, the relative growth was inactive: 0.975. As to `C[C@@H]1CCCCO[C@@H](CN(C)Cc2ccncc2)[C@@H](C)CN([C@@H](C)CO)C(=O)c2cc(NC(=O)Cc3ccccc3)ccc2O1`, the relative growth was inactive: 1.01. Take `Cc1noc(C)c1NC(=O)Nc1ccc2c(c1)CC(=O)N([C@H](C)CO)C[C@@H](C)[C@@H](CN(C)C(=O)Nc1ccc(C(F)(F)F)cc1)O2`: the relative growth was inactive: 0.981.

Take `COc1cccc(C(=O)Nc2ccc3c(c2)C(=O)N(C)[C@@H]2CC[C@H](CC(=O)NCCCN4CCOCC4)O[C@H]2CO3)c1`: the relative growth was inactive: 0.993.

Regarding `Cc1noc(C)c1NC(=O)Nc1ccc2c(c1)C(=O)N([C@H](C)CO)C[C@H](C)[C@@H](CN(C)S(=O)(=O)c1cn(C)cn1)O2`, the relative growth was inactive: 0.997. To `Cn1c(N)c(C(=O)c2ccco2)c(=O)n(C)c1=O` belongs inactive: 0.981; to `COc1ccc([C@H]2CC=CC[C@H](C)Oc3ccccc3C(=O)N(C)[C@@H](Cc3ccccc3)C(=O)N2)c(OC)c1`, inactive: 1.01. To `C[C@@H]1CN([C@@H](C)CO)C(=O)c2cc(C#Cc3ccccc3)cnc2O[C@@H]1CN(C)C(=O)CCN1CCCCC1` belongs inactive: 1.02.

On to `C[C@H]1CN([C@@H](C)CO)C(=O)c2cc(NC(=O)CCCCCC(=O)Nc3ccccc3N)ccc2O[C@@H]1CN(C)C(=O)Nc1ccc(C(F)(F)F)cc1`, for which the relative growth was inactive: 1. For `Cc1ccc(S(=O)(=O)Nc2ccc3c(c2)C(=O)N([C@@H](C)CO)C[C@@H](C)[C@H](CN(C)S(=O)(=O)c2cn(C)cn2)O3)cc1`, the relative growth is inactive: 0.983. For `C[C@H](CO)N1C[C@H](C)[C@H](CN(C)S(=O)(=O)c2ccc(F)cc2)Oc2ccc(NC(=O)Nc3cccc4ccccc34)cc2CC1=O` the value was inactive: 1.04; for `CC(C)(N)c1cn(CC2CCN(C(=O)c3ccccc3-n3cccn3)CC2)nn1`, inactive: 1. For `C[C@@H]1CN([C@@H](C)CO)C(=O)CCCn2cc(nn2)CO[C@H]1CN(C)S(=O)(=O)c1ccc2c(c1)OCCCO2` the value was inactive: 1; for `C[C@@H]1CCCCO[C@H](CN(C)S(=O)(=O)c2ccc(Cl)cc2)[C@@H](C)CN([C@@H](C)CO)C(=O)c2cc(NC(=O)Nc3ccc(C(F)(F)F)cc3)ccc2O1`, inactive: 0.989. For `CN(C)CCCCNC(=O)[C@H]1C[C@H]2C(=O)N3CCC[C@H]3C(=O)N2[C@H]1c1cccc(OCCO)c1`, the relative growth was inactive: 0.99.

As to `C[C@H](CO)N1C[C@H](C)[C@H](CN(C)C(=O)NC2CCCCC2)OCCCC[C@H](C)Oc2ccc(NC(=O)Nc3ccc(C(F)(F)F)cc3)cc2C1=O`, the relative growth was inactive: 1.02.

These data come from the supplement of paper PMC9446081.
